“And” between values parts separate entries of the source, which are not always exact repeats. Identical values can stand only once. Screen size: about 360,000 compounds; about 7,500 (2.1%) were called active. Inconclusive results, whose numbers are uncertain, are shown with a selection of clear calls. The call rests on the fitted dose curve; in most records, active means well fitted cell-killing curve with a large enough effect; inconclusive means small, poorly fitted or top-dose-only effect, or effect the other way, or another doubt; inactive means no such curve, though single readings can be large or run the other way. Where the call is inconclusive, the potency comes from a doubtful curve fit.
Assay: qHTS for induction of synthetic lethality in tumor cells producing 2HG: qHTS for the HT-1080-IDH1KD cell line;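 on activity, negative = toxicity: 0% = DMSO wells and -100% = cell-free medium wells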
Settings: HT-1080 IDH1 knockdown viability, ATP luminescence, 48 h; activity, negative = toxicity: at 46.1 µM (top of the series) unless noted
Procedure, shortened: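 CellTiter-Glo luminescence after 48 h compound exposure at 37 degrees C of IDH1-knockdown HT-1080 cells in 5% FBS RPMI. %Activity scaled between DMSO wells and cell-free media wells, with curves fitted and assigned curve classes.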
Potency means the concentration at half of the fitted maximal effect; tags describe the fitted curve by direction and shape.

Structure (SMILES)	activity, negative = toxicity	Potency
CC(=O)N1SC(N)=NC1c1ccccc1 (stereo not drawn)	inactive: 15.5%	
CCc1cccc(CC)c1NC(=O)COC(=O)C1(C)CC1(Cl)Cl (stereo not drawn)	inactive: 2.04%	
COc1ccc(C(=O)Nc2ccc3[nH]ccc3c2)cc1		active: 20.6 µM
Cc1cc(C)cc(NC(=O)c2ccc(Cn3nc(C)c(Cl)c3C)o2)c1		inconclusive: 23.1 µM [cytotoxic, partial curve]
COc1ccccc1-c1sc2cc3c(cc2c1C#Cc1cncn1C)OCO3		inconclusive: 29.1 µM [cytotoxic, single point]
CC1CN(S(=O)(=O)N2CCOCC2)CCN1S(=O)(=O)N1CCOCC1 (stereo not drawn)	inactive: 2.22%	
Cc1ccc(C)c(NC(=O)CCc2ccc(S(=O)(=O)NC3CCCCC3)cc2)c1	inactive: -7.48%	
Cc1ccc(NS(=O)(=O)c2ccc(Br)cc2)nc1	inactive: -1.13%	
COc1ccccc1NC(=O)NNC(=O)c1ccc2c(c1)NC(=O)C(C)(C)O2		inconclusive: 20.6 µM [cytotoxic, single point]
O=C(Cn1nnc2ccccc21)NNC(=O)c1ccccc1	inconclusive: 31.3%	
Cc1cc(O)c(C(C)C)cc1N=Nc1ccccc1C(=O)O		inconclusive: 29.1 µM [cytotoxic, single point]
Cc1ccc(C(=O)c2cc([N+](=O)[O-])ccc2N2CCN(C)CC2)cc1		active: 7.31 µM
CCN1CCN(Cc2coc3ccc(C)cc3c2=O)CC1	inactive: -11.5%	
Nc1cccc(Nc2nc(OC(C(F)(F)F)C(F)(F)F)nc(OC(C(F)(F)F)C(F)(F)F)n2)c1		inconclusive: 20.6 µM [cytotoxic, single point]
CCOC(=O)c1c(C)[nH]c(-c2csc(N)n2)c1C		active: 4.61 µM
O=C(c1ccc(N2CCN(C3CC(=O)N(Cc4cccs4)C3=O)CC2)cc1)c1cccnc1 (stereo not drawn)		inconclusive: 20.6 µM [cytotoxic, single point]
Cc1ccc(-c2[nH]ncc2/C=C(\C#N)C(=O)NC2CCCCC2)cc1		inconclusive: 23.1 µM [cytotoxic, partial curve]
Cc1ccc(C)c(N)c1	inactive: -0.749%	
CC(C)Oc1ccc(-c2nc(NCC3CCCO3)c3ccccc3n2)cc1 (stereo not drawn)		inconclusive: 25.9 µM [cytotoxic, single point]
CC(C)=CCCC1(C)C=Cc2c(c(C)cc3c2[nH]c2cc(O)ccc23)O1 (stereo not drawn)		inconclusive: 29.1 µM [cytotoxic, single point]
CC(C)(C)C(=O)c1no[n+]([O-])c1/C(=N/O)C(C)(C)C		inconclusive: 18.4 µM [cytotoxic, single point]
CCN1/C(=C/C(C)=O)Sc2ccc(OC)cc21	inactive: -3.98%	
COc1ccccc1NC(=O)Nc1ccc2c(c1)OCCO2		inconclusive: 29.1 µM [cytotoxic, single point]
CCOC(=O)C1CCCN(C(=O)CNS(=O)(=O)c2ccc(Br)s2)C1 (stereo not drawn)	inactive: -6.17%	
COc1ccc(CC(=O)Nc2nc(-c3ccc(F)c(F)c3)cs2)cc1		inconclusive: 23.1 µM [cytotoxic, single point]

Structure (SMILES)	activity, negative = toxicity	Potency
O=C(CN1C(=O)COc2ccccc21)N(Cc1cccnc1)Cc1cccc(F)c1	inactive: -14.3%	
CCN(CCCNC(=O)c1[nH]c(C)c(C(C)=O)c1C)c1cccc(C)c1		inconclusive: 18.4 µM [cytotoxic, single point]
O=C(c1ccc(Cl)c(S(=O)(=O)N2CCOCC2)c1)N1CCN(Cc2ccccc2)CC1	inactive: 6.41%	
CN(C)S(=O)(=O)c1cccc(C(=O)Nc2cc(Cl)cc(Cl)c2)c1		inconclusive: 23.1 µM [cytotoxic, single point]
O=C(Nc1cnn(C23CC4CC(CC(C4)C2)C3)c1)c1cc(-c2ccccc2)on1		inconclusive: 22.4 µM [rising, single point]
Cc1cccc(NC2=C(NC(=O)c3ccccc3)C(=O)c3ccccc3C2=O)c1		inconclusive: 8.2 µM [cytotoxic, partial curve]
Cc1oc(-c2ccccc2Cl)nc1CS(=O)CC(=O)NCc1ccc2c(c1)OCO2 (stereo not drawn)	inactive: -1.14%	
COc1ccc(-c2c(C3=CCCCC3)oc3ccc(-c4ccc5c(c4)OCO5)cc23)cn1	inactive: 4.96%	
COc1ccc(/C=C2\SC(=Nc3ccccc3Cl)NC2=O)c(OC)c1		inconclusive: 20.6 µM [cytotoxic, single point]
COc1ccccc1C(=O)/C=C/c1ccc(N2CCCCC2)c([N+](=O)[O-])c1		inconclusive: 29.1 µM [cytotoxic, single point]
CCOC(=O)CSc1nc2cc(OCC)ccc2cc1C#N	inactive: 2.58%	
CCOC(=O)c1oc2ccc(S(=O)(=O)n3nc(-c4ccccc4)cc3N)cc2c1C		inconclusive: 20.6 µM [cytotoxic, single point]
Cc1cc(C)nc(N2CCC(C(=O)N3CCN(c4cc(Cl)ccc4C)CC3)CC2)n1		inconclusive: 22.4 µM [cytotoxic, single point]
O=C(NCCOc1ccccc1)C1CCC(=O)N(CCc2ccccn2)C1 (stereo not drawn)	inactive: -1%	
COc1ccc(CCNC(=O)/C=C/c2ccco2)cc1	inactive: 0.601%	
COc1ccc(-c2sc3ccc(N4CCOCC4)cc3c2C#CCCO)cc1		active: 23.1 µM
COc1ccccc1C1CCN(C(=O)c2ccc(C(C)(C)C)cc2)CC1		inconclusive: 23.1 µM [cytotoxic, single point]
CC(=O)Nc1ccc(S(=O)(=O)N[C@@H](C)C(=O)OCC(=O)c2ccc(Br)s2)cc1	inactive: 2.54%	
Brc1cccc(CNCCCN2CCOCC2)c1	inactive: 3.67%	
COc1cc2c(c(OC)c1OC)-c1ccc(SC)c(=O)cc1C(NC(=O)C(F)(F)F)CC2 (stereo not drawn)		active: 0.0065 µM
CC1CN(C(=O)CCC(=O)NCc2ccc(Cl)cc2)c2ccccc2O1 (stereo not drawn)	inactive: -1.76%	
O=C(Oc1ccc(Br)cc1C(=S)N1CCOCC1)c1ccc([N+](=O)[O-])cc1[N+](=O)[O-]		inconclusive: 29.1 µM [cytotoxic, single point]
O=C(NCc1ccncc1)c1nc(-c2ccc(C(F)(F)F)cc2)no1	inconclusive: -37.4% [cytotoxic]	
CN=c1scc(-c2cccs2)n1/N=C/c1ccc(O)c(O)c1O		inconclusive: 8.2 µM [cytotoxic, partial curve, poor fit]
CCCC[n+]1ccn(C2=C([O-])c3ccccc3C(=O)/C2=N\S(=O)(=O)c2ccc(Br)cc2)c1		inconclusive: 32.6 µM [cytotoxic, single point]

Structure (SMILES)	activity, negative = toxicity	Potency
Cn1c(C(=O)N2CCN(c3cccc(C(F)(F)F)c3)CC2)cc2sccc21		inconclusive: 17.8 µM [cytotoxic, single point]
Cc1cccc(C)c1OCC(O)CN1CCc2ccccc2C1 (stereo not drawn)		inconclusive: 7.31 µM [cytotoxic, partial curve]
COc1ccc(Cn2c(C)c(C)c(C#N)c2NC(=O)Nc2cccc(Cl)c2)cc1		inconclusive: 22.4 µM [cytotoxic, single point]
CCc1ccc(CCC(=O)Nc2ncc(Cc3ccccc3Cl)s2)o1		active: 4.61 µM
O=C(c1ccc2c(c1)OCCO2)C1CCN(C(=O)Nc2ccccc2F)CC1	inactive: -7.45%	
CCCNS(=O)(=O)c1cccc(C(=O)OCc2cc(=O)oc3cc(OC)ccc23)c1		inconclusive: 16.4 µM [cytotoxic, partial curve]
CCc1ccc(NC(=O)CSc2nnc(-c3n[nH]c4ccccc34)n2-c2ccccc2)cc1	inactive: -12.3%	
O=C(NNC(=S)Nc1ccc(F)cc1)c1ccccc1OC(F)F		inconclusive: 22.4 µM [cytotoxic, single point]
Nc1nc2ccc(Cl)cc2cc1C(=O)NCCc1c[nH]c2ccccc12		inconclusive: 16.4 µM [cytotoxic, partial curve]
O=C(NN=Cc1ccc(O)c(O)c1)c1ccccc1	inactive: -3.28%	
CCCCOc1ccc(CC(=O)NO)cc1		inconclusive: 17.8 µM [cytotoxic, single point] and inconclusive: 25.9 µM [cytotoxic, single point]
COC(=O)c1c(N(S(C)(=O)=O)S(C)(=O)=O)sc2c1CCN(c1ncc(C(F)(F)F)cc1Cl)C2		inconclusive: 29.1 µM [cytotoxic, single point]
Fc1ccc2[nH]c3c(c2c1)CN(C(=S)NCc1ccccc1)CC3		inconclusive: 20.6 µM [cytotoxic, partial curve]
CCOC(=O)CNc1nc(C(C)(C)C)nc2c1nnn2Cc1ccccc1Cl	inactive: -20.2%	
CCCCOc1cccc(C(=O)Nc2ccc(NC(=O)c3cccs3)cc2)c1		active: 14.6 µM
Fc1ccc(NC(=S)Nc2ccc(F)c(Cl)c2)cc1Cl		inconclusive: 16.4 µM [cytotoxic, single point]
CSc1cccc(NC(=O)/C=C/c2ccc(Cl)cc2)c1		inconclusive: 28.2 µM [cytotoxic, single point]
O=C(Nc1ccccc1Br)C1CCN(C(=O)Cc2ccccc2)CC1	inactive: 9.11%	
O=C(NCCc1ccccc1)C1Cc2c(-c3ccccc3Oc3ccccc3)ccnc2O1 (stereo not drawn)		inconclusive: 29.1 µM [cytotoxic, single point]
O=C(Nc1ccc(S(=O)(=O)N2CCc3ccccc3C2)cc1)c1ccccc1		inconclusive: 31.6 µM [cytotoxic, single point]
Cc1ccccc1C(=O)N/N=C/c1ccc(OCC(=O)N2CCCCC2)cc1		inconclusive: 35.5 µM [cytotoxic, single point]
COc1cc(O)c2c(=O)c(-c3ccc(O[C@@H]4O[C@H](CO)[C@@H](O)[C@H](O)[C@H]4O)cc3)coc2c1	inactive: -27%	
COc1ccc(NC(=O)NCCCN2CCN(c3cc(C)ccc3C)CC2)cc1		inconclusive: 16.4 µM [cytotoxic, single point]

Source: PubChem BioAssay AID686971 (National Center for Advancing Translational Sciences (NCATS), 2013)
